The values that follow are results of earlier work, collected in paper PMC11006913.

What all share (details): PBM; conditions not shown; double strand, one strand shown; scale: upbm affinity estimate (log intensity, higher = more binding, comparable within an allelic series)
For data set [1], the target named is PITX2 L100Q (Homo sapiens) (UniProt Q99697).
Data set [2] addresses PITX2 R108H (Homo sapiens) (UniProt Q99697).
Data set [3] concerns the target PITX2 R130W (Homo sapiens) (UniProt Q99697).
Data set [4] concerns the target PITX2 T114P (Homo sapiens) (UniProt Q99697).

Some of the results follow.

Turning to AGGATTAC [8-mer AGGATTAC], the binding signal was 11.2 in data set [1], 9.43 in data set [2], 8.62 in data set [3] and 9.83 in data set [4].

For ACTCATCC [8-mer ACTCATCC], the binding signal in data set [1] was 9.29; in data set [2], 8.57; in data set [3] it was 8.61; in data set [4], 8.63.

With AATAAGCG [8-mer AATAAGCG], the binding signal in data set [1] is 9.38; in data set [2] it was 8.62; in data set [3], 8.46; in data set [4], 8.51.

On to CGGATTAC [8-mer CGGATTAC], for which the binding signal in data set [1] is 11.1; in data set [2] it was 9.38; in data set [3] it was 8.54; in data set [4], 9.75.

GCCTCCCA [8-mer GCCTCCCA]: the binding signal was 8.22 in data set [1], 8.05 in data set [2], 7.83 in data set [3] and 8.12 in data set [4].

As to TGGATTAA [8-mer TGGATTAA], the binding signal in data set [1] is 11.6; in data set [2], 9.78; in data set [3], 8.7; in data set [4] it was 10.2.

With CGGGATTA [8-mer CGGGATTA], the binding signal in data set [1] is 11.4; in data set [2], 9.52; in data set [3] it was 8.43; in data set [4], 10.1.

For CCCAGCCA [8-mer CCCAGCCA], the binding signal was 8.34 in data set [1], 8.16 in data set [2], 8.06 in data set [3] and 8.19 in data set [4].

As for CGTGGCAC [8-mer CGTGGCAC], the binding signal in data set [1] is 8.25; in data set [2], 8.3; in data set [3], 8.18; in data set [4] it was 8.3.

Turning to ATGGATTA [8-mer ATGGATTA], the binding signal was 11.3 in data set [1], 9.43 in data set [2], 8.63 in data set [3] and 9.84 in data set [4].

GATTAAGA [8-mer GATTAAGA]: the binding signal in data set [1] is 11; in data set [2], 9.4; in data set [3], 8.78; in data set [4], 9.62.

Regarding CATAATCC [8-mer CATAATCC], the binding signal in data set [1] is 11.1; in data set [2], 9.36; in data set [3], 8.51; in data set [4], 9.7.

With ACTAAGCC [8-mer ACTAAGCC], the binding signal in data set [1] was 10.8; in data set [2], 8.99; in data set [3], 8.47; in data set [4], 9.23.

In the case of AGATTAAC [8-mer AGATTAAC], the binding signal in data set [1] was 11; in data set [2], 9.36; in data set [3], 8.53; in data set [4], 9.56.

In the case of GTAATCCA [8-mer GTAATCCA], the binding signal in data set [1] was 11.1; in data set [2], 9.21; in data set [3] it was 8.65; in data set [4] it was 9.58.

On to ATTACCGA [8-mer ATTACCGA], for which the binding signal in data set [1] is 9.63; in data set [2] it was 8.79; in data set [3], 8.62; in data set [4], 8.81.

In the case of CTAATCCC [8-mer CTAATCCC], the binding signal in data set [1] is 11.7; in data set [2], 9.87; in data set [3], 8.52; in data set [4] it was 10.5.

TGGCTTAA [8-mer TGGCTTAA]: the binding signal was 10.8 in data set [1], 9.09 in data set [2], 8.63 in data set [3] and 9.29 in data set [4].

For CAGGATTA [8-mer CAGGATTA], the binding signal in data set [1] was 11.3; in data set [2] it was 9.4; in data set [3], 8.5; in data set [4] it was 9.89.

For the sequence ACTAATCT [8-mer ACTAATCT], the binding signal in data set [1] was 11.2; in data set [2] it was 9.29; in data set [3] it was 8.56; in data set [4], 9.47.

Consider GCGGGAGA [8-mer GCGGGAGA], for which the binding signal in data set [1] was 8.18; in data set [2], 8.1; in data set [3], 8.02; in data set [4] it was 8.12.

As for GACCGAAC [8-mer GACCGAAC], the binding signal was 8.29 in data set [1], 8.25 in data set [2], 8.21 in data set [3] and 8.23 in data set [4].

In the case of CCGCCACG [8-mer CCGCCACG], the binding signal in data set [1] was 8.35; in data set [2], 8.15; in data set [3], 8.05; in data set [4] it was 8.12.

Take GAAGATTA [8-mer GAAGATTA]: the binding signal in data set [1] is 10.8; in data set [2], 9.16; in data set [3], 8.57; in data set [4], 9.33.

As for AAATCCGC [8-mer AAATCCGC], the binding signal in data set [1] is 9.97; in data set [2] it was 8.51; in data set [3], 8.22; in data set [4], 8.61.

Regarding ACTAACCC [8-mer ACTAACCC], the binding signal was 9.5 in data set [1], 8.65 in data set [2], 8.53 in data set [3] and 8.74 in data set [4].

For CGACCCTC [8-mer CGACCCTC], the binding signal in data set [1] was 8.28; in data set [2] it was 8.15; in data set [3] it was 8.11; in data set [4], 8.13.

Consider GGCGTGCA [8-mer GGCGTGCA], for which the binding signal in data set [1] is 8.21; in data set [2] it was 8.09; in data set [3] it was 8.18; in data set [4], 8.16.

For CTAATCCA [8-mer CTAATCCA], the binding signal in data set [1] was 11.4; in data set [2] it was 9.41; in data set [3] it was 8.5; in data set [4], 9.85.

Regarding AGGGCCCC [8-mer AGGGCCCC], the binding signal was 8.17 in data set [1], 7.89 in data set [2], 7.75 in data set [3] and 7.96 in data set [4].

As for CTAATCTC [8-mer CTAATCTC], the binding signal in data set [1] was 11.2; in data set [2], 9.43; in data set [3], 8.58; in data set [4], 9.67.

As for ACTTAGGC [8-mer ACTTAGGC], the binding signal was 9.63 in data set [1], 8.49 in data set [2], 8.37 in data set [3] and 8.51 in data set [4].

Regarding GGCGGCCA [8-mer GGCGGCCA], the binding signal in data set [1] was 8.22; in data set [2] it was 8.07; in data set [3], 7.94; in data set [4], 8.11.

In the case of CGGTCACG [8-mer CGGTCACG], the binding signal is 8.29 in data set [1], 8.09 in data set [2], 8.15 in data set [3] and 8.15 in data set [4].

With AGCATGCT [8-mer AGCATGCT], the binding signal is 8.39 in data set [1], 8.41 in data set [2], 8.42 in data set [3] and 8.43 in data set [4].

For TAATCTCA [8-mer TAATCTCA], the binding signal in data set [1] is 10.9; in data set [2], 9.19; in data set [3] it was 8.66; in data set [4] it was 9.46.

Consider GTCCCCAC [8-mer GTCCCCAC], for which the binding signal in data set [1] was 8.33; in data set [2] it was 8.05; in data set [3] it was 7.96; in data set [4], 8.14.

Regarding CCCTAGGG [8-mer CCCTAGGG], the binding signal was 8.49 in data set [1], 8.04 in data set [2], 8.07 in data set [3] and 8.14 in data set [4].

As to GGGTACCC [8-mer GGGTACCC], the binding signal in data set [1] was 8.68; in data set [2], 8.16; in data set [3], 7.96; in data set [4], 8.26.

Consider GATTAAGC [8-mer GATTAAGC], for which the binding signal is 11 in data set [1], 9.24 in data set [2], 8.49 in data set [3] and 9.45 in data set [4].

CACCCCGG [8-mer CACCCCGG]: the binding signal in data set [1] is 8.14; in data set [2], 8.01; in data set [3], 7.81; in data set [4], 8.08.

Turning to GAGAGGGC [8-mer GAGAGGGC], the binding signal was 8.21 in data set [1], 7.94 in data set [2], 7.89 in data set [3] and 8.01 in data set [4].

As for GAATGGCC [8-mer GAATGGCC], the binding signal in data set [1] was 8.13; in data set [2], 8.18; in data set [3], 8.1; in data set [4], 8.21.

As to GGATTATA [8-mer GGATTATA], the binding signal in data set [1] is 11.5; in data set [2], 9.84; in data set [3], 8.7; in data set [4], 10.2.
